Data published in the supplement of paper PMC8728848.
The other results are listed elsewhere or left out.

Assays:
Assay in all cases: glycan array binding signal (z-score within array); higher = stronger binding
Details in all cases: glycan notation: IUPAC condensed, linker removed
Gal6S(b1-4)Glc6S = biological target: Gal6S(b1-4)Glc6S
In short: (§1)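 Negative Z-scores can be read as non-binding. The Z-score is calculated within each array and then averaged across arrays of one protein sequence at different concentrations or buffers and across linkers. Arrays, 3228 in all, were curated from the Consortium for Functional Glycomics database and kept only where the protein sequence was available.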

Gal6S(b1-4)GlcNAc = biological target: Gal6S(b1-4)GlcNAc
In short: as §1

Gal6S(b1-4)GlcNAc6S = biological target: Gal6S(b1-4)GlcNAc6S
In short: as §1

GalNAc(a1-3)Gal = biological target: GalNAc(a1-3)Gal
In short: as §1

GalNAc(a1-3)GalNAc = biological target: GalNAc(a1-3)GalNAc
In short: as §1

[1] = biological target: GalNAc(a1-3)GalNAc(b1-3)Gal(a1-4)Gal(b1-4)Glc
In short: as §1

[2] = biological target: GalNAc(a1-3)GalNAc(b1-3)Gal(a1-4)Gal(b1-4)GlcNAc
In short: as §1

GalNAc(b1-3)Gal = biological target: GalNAc(b1-3)Gal
In short: as §1

[3] = biological target: GalNAc(b1-3)Gal(a1-4)Gal(b1-4)GlcNAc
In short: as §1

[4] = biological target: GalNAc(b1-3)Gal(a1-4)Gal(b1-4)GlcNAc(b1-3)Gal(b1-4)Glc
In short: as §1

[5] = biological target: GalNAc(b1-3)Gal(a1-6)Gal(b1-4)Glc
In short: as §1

GalNAc(b1-3)GalNAc = biological target: GalNAc(b1-3)GalNAc
In short: as §1

GalNAc(b1-3)GlcNAc = biological target: GalNAc(b1-3)GlcNAc
In short: as §1

GalNAc(b1-4)Gal(b1-4)Glc = biological target: GalNAc(b1-4)Gal(b1-4)Glc
In short: as §1

GalNAc(b1-4)GlcNAc = biological target: GalNAc(b1-4)GlcNAc
In short: as §1

[6] = biological target: GalNAc(b1-4)GlcNAc(b1-2)Man
In short: as §1

[7] = biological target: GalNAc(b1-4)GlcNAc(b1-2)Man(a1-3)[GalNAc(b1-4)GlcNAc(b1-2)Man(a1-6)]Man(b1-4)GlcNAc(b1-4)GlcNAc
In short: as §1

[8] = biological target: GalNAc(b1-4)GlcNAc(b1-3)GalNAc(b1-4)GlcNAc
In short: as §1

GalNAc(b1-4)GlcNAc6S = biological target: GalNAc(b1-4)GlcNAc6S
In short: as §1

GalNAc(b1-6)GalNAc = biological target: GalNAc(b1-6)GalNAc
In short: as §1

GalNAc3S(b1-4)GlcNAc = biological target: GalNAc3S(b1-4)GlcNAc
In short: as §1

GalNAc3S(b1-4)GlcNAc3S = biological target: GalNAc3S(b1-4)GlcNAc3S
In short: as §1

[9] = biological target: GalNAc3S(b1-4)[Fuc(a1-3)]GlcNAc
In short: as §1

GalNAc4S6S(b1-4)GlcNAc = biological target: GalNAc4S6S(b1-4)GlcNAc
In short: as §1

GalNAc6S(b1-4)GlcNAc = biological target: GalNAc6S(b1-4)GlcNAc
In short: as §1

Glc(a1-4)Glc = biological target: Glc(a1-4)Glc
In short: as §1

[10] = biological target: Glc(a1-4)Glc(a1-4)Glc(a1-4)Glc
In short: as §1

Glc(a1-6)Glc(a1-6)Glc = biological target: Glc(a1-6)Glc(a1-6)Glc
In short: as §1

[11] = biological target: Glc(a1-6)Glc(a1-6)Glc(a1-6)Glc
In short: as §1

Glc(b1-4)Glc = biological target: Glc(b1-4)Glc
In short: as §1

Glc(b1-6)Glc = biological target: Glc(b1-6)Glc
In short: as §1

GlcA(b1-3)Gal = biological target: GlcA(b1-3)Gal
In short: as §1

GlcA(b1-3)GlcNAc = biological target: GlcA(b1-3)GlcNAc
In short: as §1

GlcA(b1-6)Gal = biological target: GlcA(b1-6)Gal
In short: as §1

[12] = biological target: GlcA3S(b1-3)Gal(b1-4)GlcNAc(b1-2)Man
In short: as §1

[13] = biological target: GlcA3S(b1-3)Gal(b1-4)GlcNAc(b1-3)Gal(b1-4)Glc
In short: as §1

[14] = biological target: GlcNAc(a1-3)Gal(b1-4)GlcNAc
In short: as §1

[15] = biological target: GlcNAc(a1-4)Gal(b1-3)GlcNAc
In short: as §1

[16] = biological target: GlcNAc(a1-4)Gal(b1-4)GalNAc
In short: as §1

[17] = biological target: GlcNAc(a1-4)Gal(b1-4)GlcNAc
In short: as §1

[18] = biological target: GlcNAc(a1-4)Gal(b1-4)GlcNAc(b1-3)Gal(b1-4)Glc
In short: as §1

[19] = biological target: GlcNAc(a1-4)Gal(b1-4)GlcNAc(b1-3)Gal(b1-4)GlcNAc
In short: as §1

[20] = biological target: GlcNAc(a1-4)Gal(b1-4)GlcNAc(b1-3)Gal(b1-4)GlcNAc(b1-3)Gal(b1-4)GlcNAc
In short: as §1

[21] = biological target: GlcNAc(a1-4)Gal(b1-4)GlcNAc(b1-3)Gal(b1-4)[Fuc(a1-3)]GlcNAc(b1-3)Gal(b1-4)[Fuc(a1-3)]GlcNAc
In short: as §1

[22] = biological target: GlcNAc(a1-6)Gal(b1-4)GlcNAc
In short: as §1

B1: LecB PA14 (Pseudomonas aeruginosa) (protein)
chain: MATQGVFTLPANTQFGVTAFANSAGTQTVNVQVNNETVATFTGQSTNNAIIGSKVLNSGGGGKVQILVSVNGRSSDLVSAQVILANELNFALVGSEDSTDNDYNDAVVVINWPLG
- glycan array binding signal (z-score) (Gal6S(b1-4)Glc6S): -0.022
- glycan array binding signal (z-score) (Gal6S(b1-4)GlcNAc): -0.841
- glycan array binding signal (z-score) (Gal6S(b1-4)GlcNAc6S): -0.767
- glycan array binding signal (z-score) (GalNAc(a1-3)Gal): -0.201
- glycan array binding signal (z-score) (GalNAc(a1-3)GalNAc): -0.527
- glycan array binding signal (z-score) [1]: -0.195
- glycan array binding signal (z-score) [2]: -0.57
- glycan array binding signal (z-score) (GalNAc(b1-3)Gal): -0.602
- glycan array binding signal (z-score) [3]: 0.245
- glycan array binding signal (z-score) [4]: -0.248
- glycan array binding signal (z-score) [5]: -0.3
- glycan array binding signal (z-score) (GalNAc(b1-3)GalNAc): 0.151
- glycan array binding signal (z-score) (GalNAc(b1-3)GlcNAc): 0.446
- glycan array binding signal (z-score) (GalNAc(b1-4)Gal(b1-4)Glc): -0.879
- glycan array binding signal (z-score) (GalNAc(b1-4)GlcNAc): -0.772
- glycan array binding signal (z-score) [6]: -0.559
- glycan array binding signal (z-score) [7]: -0.424
- glycan array binding signal (z-score) [8]: -0.272
- glycan array binding signal (z-score) (GalNAc(b1-4)GlcNAc6S): -0.625
- glycan array binding signal (z-score) (GalNAc(b1-6)GalNAc): -0.482
- glycan array binding signal (z-score) (GalNAc3S(b1-4)GlcNAc): 0.077
- glycan array binding signal (z-score) (GalNAc3S(b1-4)GlcNAc3S): -0.53
- glycan array binding signal (z-score) [9]: 0.25
- glycan array binding signal (z-score) (GalNAc4S6S(b1-4)GlcNAc): -0.487
- glycan array binding signal (z-score) (GalNAc6S(b1-4)GlcNAc): 0.116
- glycan array binding signal (z-score) (Glc(a1-4)Glc): -0.901
- glycan array binding signal (z-score) [10]: -0.427
- glycan array binding signal (z-score) (Glc(a1-6)Glc(a1-6)Glc): -0.565
- glycan array binding signal (z-score) [11]: -0.355
- glycan array binding signal (z-score) (Glc(b1-4)Glc): -0.173
- glycan array binding signal (z-score) (Glc(b1-6)Glc): 0.04
- glycan array binding signal (z-score) (GlcA(b1-3)Gal): 0.136
- glycan array binding signal (z-score) (GlcA(b1-3)GlcNAc): -0.086
- glycan array binding signal (z-score) (GlcA(b1-6)Gal): -0.49
- glycan array binding signal (z-score) [12]: 0.52
- glycan array binding signal (z-score) [13]: -0.704
- glycan array binding signal (z-score) [14]: -0.037
- glycan array binding signal (z-score) [15]: -0.801
- glycan array binding signal (z-score) [16]: 0.482
- glycan array binding signal (z-score) [17]: -0.75
- glycan array binding signal (z-score) [18]: -0.506
- glycan array binding signal (z-score) [19]: 0.721
- glycan array binding signal (z-score) [20]: -0.119
- glycan array binding signal (z-score) [21]: 0.502
- glycan array binding signal (z-score) [22]: -0.551
